# ± gives the standard deviation. This is a selection; strong and weak results do not stand in their true shares.
# Test system: MIWI (PIWIL1) piRISC loaded with L1MC piRNA (30 nt)
# Experiment: pre-steady-state target cleavage rate (min^-1); MIWI and MILI are mouse PIWI proteins and EfPiwi is from a freshwater sponge; tags in brackets are library labels; higher = faster piRNA-guided slicing of the target
# Conditions: guide: L1MC piRNA 5'p-UAACUAAAUACUAUGCAAGCUGUAGGUCCU
# In short: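 The pre-steady-state cleavage rate was derived from a burst-and-steady-state fit of Cleave-'n-Seq data. For these assays, 1 nM active affinity-purified piRISC loaded with a single synthetic guide was mixed with […] a transcribed, DNA-blocked target RNA library in HEPES–potassium acetate buffer at 33 °C, with or without 500 nM GTSF1 partner protein, for 0–8 or 0–960 min. Sequencing counts of uncleaved targets were normalised to depth and to weakly complementary targets, and k3 was capped at 0.0001 min^-1 after three trials were pooled.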
# [1] = auxiliary factor: 500 nM mouse GTSF1
# [2] = auxiliary factor: none (no GTSF1)
# 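Note: 1 nM active piRISC with 0.1 nM target library at 33 °C single turnover.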
Sequence,pre-steady-state target cleavage rate [1],pre-steady-state target cleavage rate [2]
UCCUGGUACAGCUUGCCUAGUAUUUAGUUA,0.687 ± 0.064,0.0341 ± 0.0081
UCCUGGAUGUGCUUAGCAUAGUAUUUAGUUA,0.129 ± 0.013,0.00909 ± 0.0031
UCCUGGAACGGCUUGCAUAGUAUUUAGUUA,0.897 ± 0.044,0.0613 ± 0.012
UCCUGGUACAGCUUGCAUAGUAAUUACUUA,0.0784 ± 0.02,0.0071 ± 0.0024
UCCUGGAUCAGCUUGCAUAGUUUUAAGUUA,0.0548 ± 0.01,0.00852 ± 0.003
UCGACCUAGUGCUUGCAUAGUAUUUAGUUA,0.85 ± 0.028,0.0599 ± 0.012
UCGACCUACAGCUUGCAUACUAUUUACAAA,0.211 ± 0.035,0.00398 ± 0.0023
UCGAGCUACAGCUUGCAUAGUUUUUAGUUA,0.446 ± 0.023,0.039 ± 0.0082
UCCUGGAUCACCUUGCAUAGUAUUUAGAUA,0.124 ± 0.025,0.00504 ± 0.0021
UCCUGGUACAGCUUGCAUACUAUUUAGAUA,0.055 ± 0.015,0.00449 ± 0.0022
UCCUCCAACAGCUUGCAUAGUAUUUAGAAA,0.43 ± 0.042,0.00609 ± 0.0021
UGGACCUACAGCUUGCAUAGUAUUCAGUUA,0.544 ± 0.042,0.0354 ± 0.0065
UCCUGGAUCAGCUGGCAUAGUAUUUAGUUA,0.833 ± 0.053,0.0168 ± 0.0051
UCCUGGAACAGCUUGCAUAGAAUAUAGUUA,0.163 ± 0.02,0.00581 ± 0.0038
UGGACCUACAGCUUGCAAAGUAUUUACAAA,0.125 ± 0.015,0.00411 ± 0.0022
UCCUGGAACAGCAUGCAUAGAAUUUAGUUA,0.299 ± 0.04,0.00996 ± 0.0027
UCCUGGAUGAGCUUGCAUAGUUUUUACUUA,0.0319 ± 0.011,0.00684 ± 0.0026
UCCUGGAUGACCUUGCAAAGUAUUUAGUUA,0.0697 ± 0.011,0.00406 ± 0.0018
UGGUCCUACAGCUUGCAUAGUAUUAAGUUA,0.496 ± 0.036,0.0291 ± 0.0046
UCCUGGAUGUGCUUGCAUAGUAUUGAGUUA,0.189 ± 0.025,0.0273 ± 0.0055

Sequence,pre-steady-state target cleavage rate [1],pre-steady-state target cleavage rate [2]
UCGACCUACAGCUUGCAUCGUAUUUAGUUA,0.546 ± 0.016,0.0292 ± 0.0057
UCCACCUUGAGCUUGCAUAGUAUUUAGUAA,0.687 ± 0.092,0.0162 ± 0.0035
AGGAGCUACUGCUUGCAUAGUAUUUAGUUA,1.14 ± 0.081,0.0634 ± 0.01
UCCUGGAACAGCUUGCAUUGUAUUUAGAUA,0.242 ± 0.025,0.0106 ± 0.0042
UCCUCGAACAGCUUGCAUAGUAUUUACAAA,0.356 ± 0.042,0.00537 ± 0.0025
UCCUGGAUGAGCUUGCAUAGUACUUAGUUA,0.444 ± 0.037,0.0355 ± 0.0099
UCGACCUACUGCUUCCAUAGUAUUUAGUUA,0.0526 ± 0.0098,0.00494 ± 0.001
UGGACCUACAGCUUGCAUAGUUAUUUAGUUA,0.0473 ± 0.0076,0.00533 ± 0.0021
UCCACCUACAGGUUGCAUAGUAUUUAGUUA,0.961 ± 0.13,0.0211 ± 0.0033
UCGACCUACAGGUUGCAUAGUAUUUAGAUA,0.392 ± 0.04,0.0156 ± 0.0035
UGGACCUACAGCUUGGUUAGUAUUUAGUAA,0.821 ± 0.095,0.00537 ± 0.0023
UCCUGCUACAGGUUGCAUAGUAUUAAGUUA,0.628 ± 0.084,0.0103 ± 0.0031
AGGACCUACAGCUUCCAUUGUAUUUAGUUA,0.247 ± 0.022,0.00282 ± 0.0018
UCCUCCAACAGGUUGCAUAGUAUUUAGUUA,1.15 ± 0.048,0.0305 ± 0.0065
UCCUGGAACAGCUUGCUUAGUAUUUAGAUA,0.451 ± 0.041,0.0147 ± 0.0045
UCCUGGAUGAGCUUGCAUAGUAUUUAGGUA,0.352 ± 0.051,0.0324 ± 0.0069
UCCUGCUACUGGUUGCAUAGUAUUUAGUUA,0.983 ± 0.048,0.0243 ± 0.0045
UCCUGGAUGUGCUUGCAUAUUAUUUAGUUA,0.205 ± 0.014,0.029 ± 0.0086
UCCUGGAUCAGCUUGCAAAGAAUUUAGUUA,0.113 ± 0.014,0.0101 ± 0.0046
AGGACCUACAGCUUGCAUAGUAUUUGUUA,0.51 ± 0.055,0.00548 ± 0.0028

Sequence,pre-steady-state target cleavage rate [1],pre-steady-state target cleavage rate [2]
AGGAGGUACAGCUUGCAUAGUAUUUUCAAA,0.206 ± 0.048,0.00393 ± 0.002
UCGACCUACAGCUUGCAUAGUAUUUUGUAA,0.412 ± 0.037,0.0461 ± 0.01
AGGACCUACAGCUUGGAUAGUAUUUAGAAA,0.335 ± 0.038,0.011 ± 0.0029
UCCUGGAUCACCUUGCAUUGUAUUUAGUUA,0.0582 ± 0.01,0.00816 ± 0.0021
UCCUGCUACUCCUUGCAUAGUAUUUAGUUA,0.821 ± 0.034,0.0234 ± 0.0047
UCCUGGAACAGCUUGGAUAGUUUUUAGUUA,0.257 ± 0.031,0.03 ± 0.0077
UCCACCUACAGCUUGCAUAGUAUUUACGUUA,0.64 ± 0.047,0.0372 ± 0.0077
UCCUGGAUGAGCUUGCUUAGUAAUUAGUUA,0.0955 ± 0.011,0.007 ± 0.0037
UGGACCUACAGCUUGCAUAGUAUUAUCUUA,0.156 ± 0.028,0.006 ± 0.0019
UCCUGCUUCACCUUGCAUAGUAUUUAGUUA,0.818 ± 0.048,0.0243 ± 0.0069
UCCUCCUACUGCUUGCAUAGUAAUUAGUUA,0.55 ± 0.026,0.0219 ± 0.0049
AGGACCUACAGCUUGCAUAGUAAUUUAGUUA,0.209 ± 0.024,0.0183 ± 0.0052
UCGUCCUACAGCUUGCAUAGUAUUAAGUUA,0.442 ± 0.035,0.019 ± 0.0034
UCCUGCUACAGCUUGCUUAGUAUUUAGUUA,0.987 ± 0.056,0.0337 ± 0.008
AGGGCCUACAGCUUGCAUAGUAUUUAGUUA,1.39 ± 0.061,0.106 ± 0.023
AGGACCUACAGGAAGCAUAGUAUUUAGUAA,0.683 ± 0.067,0.00458 ± 0.0026
UGGACCUACAGGUUGCAUUGUAUUUAGUUA,0.763 ± 0.05,0.0199 ± 0.0053
UCCUCGUACAGCUUGCAUAGUAUUUAGUAA,0.903 ± 0.048,0.0263 ± 0.0049
UCCUGGUAUAGCUUGCAUAGUAUUUAGUUA,1.02 ± 0.043,0.0597 ± 0.012
UCCUGGAUGUGCUUGCAUAGUAUUUAUGUUA,0.202 ± 0.026,0.0215 ± 0.0052

# From the supplement of paper PMC10338343
